Values joined by “and” are separate entries in the source; they are usually repeats but may differ in a detail not shown here. Equal entries are not always repeated. The inconclusive results got no clear call from the source; some entries with a clear call stand among them for comparison. Potencies of inconclusive entries are doubtful fits and often do not repeat. Some compounds were tested as several samples or in several runs, with calls that do not always agree. Active and inactive are the calls of the source. The call rests on the fitted dose curve; in most records, active means well fitted curve in the direction sought with a large enough effect; inconclusive means small, poorly fitted or top-dose-only effect, or another doubt; inactive means no such curve, though single readings can be large; an effect the other way counts as inactive or inconclusive.
Key:
KB-3-1 = experiment: Cytotoxic Profiling of Annotated Libraries Using Quantitative High-Throughput Screening (AID 1296008); details: Five cell lines viability, CellTiter-Glo ATP luminescence, 48-72 h; max response: active compounds read low; further: nearly all actives have a fitted effect of over 60% in size; on max response: on the % scale 0 is the no-effect control and ±100 the full control effect
Outline: (§1)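 Cytotoxicity was measured as CellTiter-Glo ATP luminescence, read after 10 min at room temperature. Compound treatment of the cells lasted 48 or 72 hr at 37 degrees Celsius in a qHTS format.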

[1] = Drug repurposing screens with cells derived from glioblastoma tumor samples (AID 1345199); details: GBM patient neurospheres viability, ATP luminescence, 48 h; Potency: tumour line A unless noted; activity, negative = cell killing: at 46 µM (top of the series), tumour line A unless noted; further: nearly all actives have a fitted effect of over 40% in size; on activity, negative = cell killing: on the % scale 0 is the no-effect control and ±100 the full control effect
Outline: (§2)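 Four patient lines of CD133+ GBM neurospheres were screened at several concentrations; hits were retested in those lines plus three slower-growing GBM lines, using 48-hour treatment and ATP-based viability.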

astro = experiment: as above; details: viability, ATP luminescence, 48 h; activity, negative = cell killing: at 45.9 µM (top of the series)
Outline: as §2

W2 = experiment: qHTS profiling for inhibitors of Plasmodium falciparum proliferation (AID 504749); further: nearly all actives have a fitted effect of over 60% in size; details: P. falciparum in erythrocytes, SYBR Green DNA, 72 h; series mostly up to 28.7 µM
Outline: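 Three-day growth assay of blood-stage parasites in erythrocytes (0.3% parasitemia, 2.5% hematocrit) at 37 C, 5% CO2, quantified by SYBR Green DNA staining after overnight detergent lysis.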

WaGa = experiment: qHTS assay to identify novel small-molecules to repurpose for Merkel cell carcinoma treatment (AID 1296009); details: MCC and control cell lines, CellTiter-Glo viability, 72 h; series mostly up to 46 µM; further: nearly all actives have a fitted effect of over 60% in size
Outline: (§3)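 After compound transfer in DMSO, plates were kept 72 hr at 37 degree celsius. Luminescent ATP signal from CellTiter-Glo served as viability measure, normalized against DMSO and no-cell controls.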

Es-2 = experiment: Primary qHTS to identify gynecologic anti-cancer compounds using libraries of approved drugs and bioactive compounds (AID 1345084); details: Gynecologic cancer cell panel viability, ATPlite luminescence, 48 h; series mostly up to 57.5 µM; further: nearly all actives have a fitted effect of over 55% in size
Outline: (§4)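 Cytotoxicity screen measuring ATP content by luciferase luminescence. Each compound is applied at five concentrations for 48 h at 37 C with 5% CO2.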

HaCat = experiment: Cytotoxic Profiling of Annotated Libraries Using Quantitative High-Throughput Screening (AID 1296008); details: Five cell lines viability, CellTiter-Glo ATP luminescence, 48-72 h; max response: active compounds read low; further: nearly all actives have a fitted effect of over 60% in size; on max response: on the % scale 0 is the no-effect control and ±100 the full control effect
Outline: as §1

MCC-26 = experiment: qHTS assay to identify novel small-molecules to repurpose for Merkel cell carcinoma treatment (AID 1296009); details: MCC and control cell lines, CellTiter-Glo viability, 72 h; series mostly up to 46 µM; further: nearly all actives have a fitted effect of over 60% in size
Outline: as §3

MKL-1 = experiment: as above; details: MCC and control cell lines, CellTiter-Glo viability, 72 h; series mostly up to 46 µM
Outline: as §3

MKL-2 = experiment: as above; details: MCC and control cell lines, CellTiter-Glo viability, 72 h; series mostly up to 46 µM
Outline: as §3

UISO = experiment: as above; details: MCC and control cell lines, CellTiter-Glo viability, 72 h; series mostly up to 46 µM
Outline: as §3

MCC-13 = experiment: as above; details: MCC and control cell lines, CellTiter-Glo viability, 72 h; series mostly up to 46 µM
Outline: as §3

CAOV3 = experiment: Primary qHTS to identify gynecologic anti-cancer compounds using libraries of approved drugs and bioactive compounds (AID 1345084); details: Gynecologic cancer cell panel viability, ATPlite luminescence, 48 h; series mostly up to 57.5 µM; further: nearly all actives have a fitted effect of over 55% in size
Outline: as §4
Potency means the concentration at half of the fitted maximal effect; tags describe the fitted curve by direction and shape.

N[C@H](C(=O)O)[C@@H]1CC(Cl)=NO1
Potency (KB-3-1): active: 20.6 µM
Potency [1]: inactive
Potency (astro): inconclusive: 3.98 µM [inhibitor, full curve]

CC[N+](CC)(CCNC(=O)C(=O)NCC[N+](CC)(CC)Cc1ccccc1Cl)Cc1ccccc1Cl
Potency (W2): active: 1.2 µM
max response (KB-3-1): inactive: -5.89%
Potency (WaGa): inactive
Potency (Es-2): inactive

CCN1\C(=C/C=C/C=C/c2sc3ccccc3[n+]2CC)Sc2ccccc21
Potency (KB-3-1): inconclusive: 18.4 µM [inhibitor, single point]

CCNC(=O)[C@@H]1CCCN1C(=O)[C@H](CCCN=C(N)N)NC(=O)[C@H](CC(C)C)NC(=O)[C@@H](Cc1c[nH]c2ccccc12)NC(=O)[C@H](Cc1ccc(O)cc1)NC(=O)[C@H](CO)NC(=O)[C@H](Cc1c[nH]c2ccccc12)NC(=O)[C@H](Cc1cnc[nH]1)NC(=O)[C@@H]1CCC(=O)N1
Potency (KB-3-1): inconclusive: 25.9 µM [inhibitor, single point]

Cc1ccc(C(=O)N(CCCN)[C@@H](c2nc3cc(Cl)ccc3c(=O)n2Cc2ccccc2)C(C)C)cc1
Potency (HaCat): inconclusive: 23.5 µM [inhibitor, partial curve, poor fit]
Potency (MCC-26): inconclusive: 0.0059 µM [inhibitor, full curve]
Potency (MKL-1): inconclusive: 0.001 µM [inhibitor]
Potency (MKL-2): inconclusive: 2.64 µM [inhibitor, partial curve, poor fit]
Potency (WaGa): inconclusive: 0.001 µM [inhibitor]

Cc1cc(-c2ccccc2)nnc1NCCN1CCOCC1
Potency (W2): inconclusive: 9.53 µM [inhibitor, partial curve]
max response (HaCat): inactive: -33.8%
Potency [1]: active: 12.6 µM
Potency (Es-2): inconclusive: 22.4 µM [cytotoxic, partial curve, poor fit]

O=C(O)C1CCCN1 (stereo not drawn)
max response (KB-3-1): inactive: 3.27%
Potency [1]: inconclusive: 35.5 µM [inhibitor, partial curve]

CN1CC[C@@H](c2c(O)cc(O)c3c(=O)cc(-c4ccccc4Cl)oc23)[C@@H](O)C1
Potency (HaCat): active: 0.372 µM
Potency (MKL-1): inconclusive: 0.372 µM [inhibitor, full curve]
Potency (MKL-2): inconclusive: 0.264 µM [inhibitor, full curve]
Potency (WaGa): inconclusive: 0.235 µM [inhibitor, full curve]

C=CCc1ccc(O)c(OC)c1
Potency (W2): inactive
max response (HaCat): inactive: -0.0642%
Potency (UISO): inactive

COc1cc(/C=C/C(=O)CC(=O)/C=C/c2ccc(O)c(OC)c2)ccc1O
Potency (KB-3-1): inconclusive: 8.2 µM [inhibitor, partial curve, poor fit]
max response (KB-3-1): inactive: 44.3%
Potency [1]: inactive

O=C(CCCN1CCN(c2ccc(F)cc2)CC1)NC1c2ccccc2CSc2ccccc21 (stereo not drawn)
Potency (KB-3-1): inconclusive: 4.69 µM [inhibitor, full curve]
Potency (MCC-13): inconclusive: 14.8 µM [inhibitor, partial curve, poor fit]
Potency (MCC-26): inactive
Potency (MKL-1): inconclusive: 16.6 µM [inhibitor, partial curve]
Potency (MKL-2): inconclusive: 13.2 µM [inhibitor, partial curve, poor fit]
Potency (UISO): inconclusive: 16.6 µM [inhibitor, partial curve]
Potency (WaGa): inconclusive: 13.2 µM [inhibitor, partial curve]
Potency [1]: active: 3.98 µM

CCCCC(CC)COC(=O)/C=C/c1ccc(OC)cc1 (stereo not drawn)
Potency (HaCat): inconclusive: 2.37 µM [inhibitor, partial curve, poor fit]
Potency [1]: inactive
Potency (CAOV3): inactive

O=C(O)CCNc1cc(N2CCc3ccccc3CC2)nc(-c2ccccn2)n1
max response (KB-3-1): inactive: -6.65% and inactive: -1.07%
outcome (KB-3-1): inactive
Potency (MKL-1): inactive
Potency (MKL-2): inconclusive: 20.9 µM [inhibitor, partial curve]
Potency (UISO): active: 14.8 µM
Potency (WaGa): inconclusive: 18.7 µM [inhibitor, partial curve, poor fit]
Potency (CAOV3): inconclusive: 4.47 µM [rising, single point]

COc1cc([C@@H]2c3cc4c(cc3C(O[C@@H]3O[C@@H]5COC(c6cccs6)O[C@H]5[C@H](O)[C@H]3O)C3COC(=O)[C@@H]32)OCO4)cc(OC)c1O (stereo partly drawn)
Potency (KB-3-1): active: 3.66 µM

CN1C(C(=O)Nc2ccccn2)=C(O)c2sc(Cl)cc2S1(=O)=O
outcome (HaCat): inactive
Potency (MCC-13): inactive
Potency (MKL-2): inconclusive: 4.69 µM [inhibitor, partial curve, poor fit]
Potency (WaGa): inactive
